Reference: PubChem BioAssay AID2147 (National Center for Advancing Translational Sciences (NCATS), 2009)
Values joined by “and” are separate entries in the source; they are usually repeats but may differ in a detail not shown here. Identical values can stand only once. Among all 230,000 compounds or so, about 3,600 (1.6%) were called active. The shares of active, inactive and inconclusive entries below differ from those in the screen. The call rests on the fitted dose curve; in most records, active means well fitted inhibition curve with a large enough effect (not every such curve was filed as active); inconclusive means small, poorly fitted or top-dose-only effect, or another doubt; inactive means no such curve, though single readings can be large or run the other way. Where the call is inconclusive, the potency comes from a doubtful curve fit.
Further: nearly all actives have a fitted effect of over 50% in size.
Potency means the concentration at half of the fitted maximal effect; tags describe the fitted curve by direction and shape.
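Wherever activity change, negative = inhibition is given: 0% = wells with enzyme and -100% = buffer wells without enzyme.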

What follows are compounds tested against Lysine-specific demethylase 4E (Homo sapiens) (UniProt B2RXH2) (assay: qHTS Assay for Inhibitors of Human Jumonji Domain Containing 2E (JMJD2E)). Conditions: JMJD2E catalytic domain, FDH-coupled NADH fluorescence (FDH is formaldehyde dehydrogenase); series mostly up to 57.1 µM; activity change, negative = inhibition: at the top concentration.
Chain of UniProt B2RXH2 (B2RXH2 whole entry, looked up, the tested form may be a part): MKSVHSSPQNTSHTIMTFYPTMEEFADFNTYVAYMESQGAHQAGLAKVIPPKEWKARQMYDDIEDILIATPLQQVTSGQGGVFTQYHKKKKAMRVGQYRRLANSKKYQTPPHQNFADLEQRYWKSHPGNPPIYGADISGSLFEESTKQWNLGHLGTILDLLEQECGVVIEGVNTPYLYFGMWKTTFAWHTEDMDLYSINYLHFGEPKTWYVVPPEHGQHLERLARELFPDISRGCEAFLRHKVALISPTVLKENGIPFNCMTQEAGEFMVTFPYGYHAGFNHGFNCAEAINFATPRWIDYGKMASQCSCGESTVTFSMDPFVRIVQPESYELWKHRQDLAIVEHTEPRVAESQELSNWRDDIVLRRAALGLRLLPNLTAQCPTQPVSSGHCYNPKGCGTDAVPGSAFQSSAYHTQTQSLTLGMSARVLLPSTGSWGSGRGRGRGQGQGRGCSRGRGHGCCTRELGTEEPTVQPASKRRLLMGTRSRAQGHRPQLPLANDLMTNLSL
With `COc1ccc2c(CC(=O)Nc3ccc(OC)c(S(=O)(=O)N4CCOCC4)c3)coc2c1` the “activity change, negative = inhibition” value was inactive: 12.2%.
`COc1ccccc1-c1cncnc1NCCc1cnc[nH]1` was tested, and the “activity change, negative = inhibition” value was inactive: 8.05%.
In the case of `CC1CCC/C(=N\Nc2ccc(Cl)c(C(=O)O)c2)C1` (stereo not given), the Potency is reported as inconclusive: 31.6 µM [inhibitor, partial curve].
For `Cc1ccc2nc(Cn3cc(C(F)(F)F)ccc3=O)cc(=O)n2c1`, the Potency was inconclusive: 25.1 µM [inhibitor, partial curve].
`CCN(CC)c1ccc(NC(=O)Cn2ncc3c(C)n(Cc4ccccc4F)c(C)c3c2=O)c(C)c1` was tested, and the Potency was inconclusive: 39.8 µM [inhibitor, single point].
`O=C(O)/C=C/c1ccc(O)c(O)c1` was tested, and the Potency was active: 15.8 µM and active: 562 nM.
`O=C(Nc1ccccc1C(F)(F)F)c1cc(-c2ccccc2O)on1` was tested, and the “activity change, negative = inhibition” value was inactive: -2.65%.
For `O=C(N/N=C/c1ccco1)c1cccc([N+](=O)[O-])c1`, the “activity change, negative = inhibition” value was inactive: -2.84%.
`COc1ccc(/C(C)=N/OCC(=O)N=Nc2c(O)[nH]c3ccc(Br)cc23)cc1` was tested, and the “activity change, negative = inhibition” value was inactive: -2.87%.
`Cc1c(=O)n(OCc2ccccc2)c2ccccc2[n+]1[O-]` was tested, and the Potency was inconclusive: 39.8 µM [inhibitor, single point].
With `CCN(CC)C(=O)c1cn(CC)c(=O)c2cc(OC)c(OC)cc12` the Potency was inconclusive: 39.8 µM [inhibitor, single point].
For `O=C(CN1CCN(c2ccccc2Cl)CC1)NC1CCCc2ccccc21` (stereo not given), the Potency was inconclusive: 28.2 µM [inhibitor, single point].
For `CCOc1ccc2[nH]c(=O)c(C(c3nnnn3CC3CCCO3)N3CCc4ccccc4C3)cc2c1` (stereo not given), the Potency was inconclusive: 31.6 µM [inhibitor, partial curve].
For `O=C(Nc1ccc(N2CCN(c3ncccc3C(F)(F)F)CC2)nc1)c1cccs1`, the “activity change, negative = inhibition” value was inactive: -13.2%.
In the case of `O=C(c1cc(C(=O)N2CCOCC2)c2nc3ccccc3n2c1)c1ccccc1O`, the Potency is reported as inconclusive: 14.1 µM [inhibitor, single point].
For `CN(C)c1cccc(C(=O)NCc2ccccc2Cl)c1`, the Potency was inconclusive: 31.6 µM [inhibitor, partial curve].
For `CNC(=O)COC(=O)/C=C/c1cn(-c2ccccc2)nc1-c1ccc(C)o1`, the Potency was inconclusive: 28.2 µM [inhibitor, partial curve].
For `COc1ccc(CNc2nc(-c3ccccc3)nn2C(=O)c2cccs2)cc1`, the Potency was inconclusive: 35.5 µM [inhibitor, single point].
With `CC(=O)Nc1ccc(-c2cc(C(=O)O)c3ccc(C)cc3n2)cc1` the Potency was inconclusive: 25.1 µM [inhibitor, partial curve].
`S=c1[nH]nc(-c2cccnc2)n1/N=C/C=C/c1ccco1` was tested, and the “activity change, negative = inhibition” value was inactive: -19.3%.
`COc1ccc(NC(=O)c2nc(C)c(C3(C)CC(c4ccccc4)=NO3)s2)cc1` (stereo not given) was tested, and the Potency was inconclusive: 35.5 µM [inhibitor, single point].
With `CCCCOc1ccc(-c2nnc(-c3ccco3)o2)cc1` the Potency was inconclusive: 28.2 µM [inhibitor, partial curve].
For `c1cnc(N2CCN(Cc3ccc4c(c3)OCO4)CC2)cn1`, the Potency was inconclusive: 31.6 µM [inhibitor, partial curve].
`CS(=O)(=O)c1ccc2nc(NC(=O)CN3CCCCCC3)sc2c1` was tested, and the Potency was inconclusive: 39.8 µM [inhibitor, single point].
For `CC1=C(C(=O)OCC2CCCO2)C(c2ccccc2)C2=C(CCCC2=O)N1` (stereo not given), the Potency was inconclusive: 35.5 µM [inhibitor, partial curve].
For `O=C(COC(=O)C1CCCCC1)Nc1ccccc1OC(F)F`, the “activity change, negative = inhibition” value was inactive: 3.58%.
`CCOc1ccccc1C1C(C(=O)Nc2ccccc2OC)=C(C)Nc2nnnn21` (stereo not given) was tested, and the “activity change, negative = inhibition” value was inactive: 5.93%.
With `CCOP(=O)(OCC)c1nc(/C=C/c2ccccc2)oc1NCc1ccccc1` the Potency was inconclusive: 31.6 µM [inhibitor, partial curve].
`CC(C)Sc1nc(SCC(=O)NCc2ccco2)c2c3c(sc2n1)COC(C)(C)C3` was tested, and the Potency was inconclusive: 39.8 µM [inhibitor, partial curve].
`CC(Oc1ccccc1Cl)C(=O)/C=C/N(C)C` (stereo not given) was tested, and the “activity change, negative = inhibition” value was inactive: -0.406%.
`N#CC1=C(N)Oc2n[nH]c(-c3cccs3)c2C1c1ccoc1` (stereo not given) was tested, and the “activity change, negative = inhibition” value was inactive: -22.9%.
For `N#CC1=C(SCC(=O)NCc2ccccc2)NC(=O)CC1c1ccco1` (stereo not given), the “activity change, negative = inhibition” value was inactive: 3.41%.
For `CCCCCC1=C2CNC(CCC)(C(=O)OC)C=C2C(C)C1=O` (stereo not given), the Potency was inconclusive: 28.2 µM [inhibitor, partial curve].
For `O=c1oc2ccccc2c(O)c1C=Nc1cccnc1`, the “activity change, negative = inhibition” value was inactive: -25.7%.
For `CCOc1ccc2oc(C(=O)OCC(=O)NC3CC3)c(C)c2c1`, the Potency was inconclusive: 14.1 µM [inhibitor, partial curve].
In the case of `Nn1c(-c2cccs2)nc2sc3c(c2c1=O)CCCC3`, the Potency is reported as inconclusive: 39.8 µM [inhibitor, single point].
With `Cc1c(CCC(=O)O)c(=O)n2c([nH]c3ccccc32)c1C#N` the Potency was inconclusive: 28.2 µM [inhibitor, partial curve].
With `Cc1cc(C)cc(NC(=O)C2CCCN(c3nccc(C)n3)C2)c1` (stereo not given) the Potency was inconclusive: 35.5 µM [inhibitor, single point].
For `O=c1[nH]c(CSc2ncnc3sc(-c4ccccc4)cc23)nc2ccccc12`, the “activity change, negative = inhibition” value was inactive: -28.6%.
For `COc1ccc(C)cc1NC(=O)C(Sc1nncn1C)c1ccccc1` (stereo not given), the “activity change, negative = inhibition” value was inactive: -3.06%.
With `COc1cccc(OC)c1C(=O)N1CCN(Cc2ccccc2C(F)(F)F)CC1` the Potency was inconclusive: 35.5 µM [inhibitor, single point].
For `CSc1cccc(NC(=S)N(CCCN2CCCC2)Cc2cccn2Cc2ccc(Cl)cc2)c1`, the “activity change, negative = inhibition” value was inactive: -3.35%.
With `C=CCn1c(Cc2cccc3ccccc23)n[nH]c1=S` the “activity change, negative = inhibition” value was inactive: -3.4%.
In the case of `COc1cccc(-n2c(Cn3nc(C(F)(F)F)cc3C)n[nH]c2=S)c1`, the Potency is reported as inconclusive: 20 µM [inhibitor, single point].
In the case of `COc1cc2nc(N(C)CCCNC(=O)C3CCCO3)nc(N)c2cc1OC` (stereo not given), the Potency is reported as inconclusive: 31.6 µM [inhibitor, partial curve] and inconclusive: 25.1 µM [inhibitor, partial curve].
`CC(C)(C)CN1CCNC(=O)C1CC(=O)N1CCN(c2ccccc2)CC1` (stereo not given) was tested, and the Potency was inconclusive: 28.2 µM [inhibitor, single point].
In the case of `O=C(NCc1ccc2c(c1)OCO2)C1CCN(c2nccc(C(F)(F)F)n2)CC1`, the “activity change, negative = inhibition” value is reported as inactive: 12.5%.
With `COC(=O)C1=C(C(=O)OC)[C@@H]2N(Cc3ccccc3)c3ccccc3[C@@]23C[C@@H](C(=O)OC)N(S(=O)(=O)c2cccs2)C3=N1` the activity change, negative = inhibition was inactive: -8.9% [at 11.4 µM].
With `Cn1cnc(NCc2ccccc2)c1[N+](=O)[O-]` the Potency was inconclusive: 39.8 µM [inhibitor, single point].
`O=C(NCCC1=CCCCC1)c1cc(-c2ccccn2)nc2ccccc12` was tested, and the Potency was inconclusive: 39.8 µM [inhibitor, single point].
`O=c1c(OC2OC(CO)C(O)C(O)C2O)c(-c2ccc(O)c(O)c2)oc2cc(O)cc(O)c12` (stereo not given) was tested, and the Potency was active: 8.91 µM.
With `Cc1ccc(C)c2[nH]c(=O)c(CCNS(=O)(=O)c3ccccc3)cc12` the Potency was inconclusive: 22.4 µM [inhibitor, partial curve].
For `CCCCNc1nc(C)nc2c1nc(-c1ccccc1)n2C1CCN(Cc2ccccc2)C1` (stereo not given), the Potency was inconclusive: 28.2 µM [inhibitor, partial curve].
For `O/N=C1/CCc2nonc2/C1=N/O`, the Potency was inconclusive: 39.8 µM [inhibitor, single point].
For `Cc1ccc(Cn2nc(C)c(NC(=O)CSc3nc4c(c(C(F)(F)F)n3)CCc3ccccc3-4)c2C)cc1`, the “activity change, negative = inhibition” value was inactive: -0.385%.
`CC(C(=O)N1CCOCC1)N1C(=O)c2cccc3cccc(c23)C1=O` (stereo not given) was tested, and the Potency was inconclusive: 35.5 µM [inhibitor, single point].
For `O=C1CC(c2cccc(Cl)c2)Cc2nc(N3CCOCC3)ncc21` (stereo not given), the Potency was inconclusive: 25.1 µM [inhibitor, single point].
For `COC(=O)CCC(=O)NNC(=O)Cc1ccccc1`, the Potency was inconclusive: 28.2 µM [inhibitor, partial curve].
`CCOC(=O)C1CCCN(C(=S)Nc2cc(C)cc(C)c2)C1` (stereo not given) was tested, and the Potency was inconclusive: 25.1 µM [inhibitor, single point].
In the case of `O=C(NC1=NCCS1)c1sc2ccccc2c1Cl`, the Potency is reported as inconclusive: 39.8 µM [inhibitor, single point].
`Cc1ccc(-n2c(SCn3nnc4ccccc4c3=O)nnc2-c2cccnc2)c(C)c1` was tested, and the “activity change, negative = inhibition” value was inactive: -14.7%.
For `CCOC(=O)c1sc2nc3c(SCCC#N)cc(C(=O)c4cc(F)ccc4O)cn3c(=O)c2c1C`, the Potency was inconclusive: 39.8 µM [inhibitor, single point].
For `CC(/C=C/c1ccco1)=N\NC(=O)c1cccnc1`, the Potency was inconclusive: 20 µM [inhibitor, partial curve].
For `CCN(CC)c1ccc(CC(=O)NC(C)Cc2ccccc2)cc1` (stereo not given), the “activity change, negative = inhibition” value was inactive: 1.37%.
In the case of `c1ccc(N2CCN(c3nc4ccccc4n4nnnc34)CC2)cc1`, the Potency is reported as inconclusive: 35.5 µM [inhibitor, single point].
`CCOC(=O)C1CCN(c2ncnc3c2oc2ccc(Br)cc23)CC1` was tested, and the Potency was inconclusive: 39.8 µM [inhibitor, single point].
For `COC(=O)CNC(=O)Cn1ccc2ccccc2c1=O`, the Potency was inconclusive: 39.8 µM [inhibitor, single point].
With `CC1CN(Cc2ccc(Cl)cc2Cl)CC(C)O1` (stereo not given) the Potency was inconclusive: 39.8 µM [inhibitor, single point].
For `O=C(/C=C\c1ccco1)c1ccc(NC(=O)c2ccco2)cc1`, the Potency was inconclusive: 28.2 µM [inhibitor, single point].
In the case of `Cc1cc2ncn(C(=O)c3cc(-c4ccccc4)nc4ccccc34)c2cc1C`, the Potency is reported as inconclusive: 35.5 µM [inhibitor, single point].
